Measurements as given in ChEMBL document CHEMBL1201862, “PubChem BioAssay data set” (2004).
Where “and” joins values, the source holds several entries; their conditions need not be identical. Equal values may be shown once.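 All cell lines were grown in 96-well plates and treated with compound for 48 hours. At the GI50, growth is halved.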 Calls of active or inactive are those of the source. No stated cut-off is given here; in the data, active = GI50 up to about 1.1 µM and inactive = higher. Numbered stars: 1 amine (or outer) side, 2 acyl side, 3 side chain; on linkers, the order of the positions; unused ones are H or OH. Bridge positions count the residues as written; N and C are the ends. Square brackets hold non-standard residues; d marks the D form. Peptide text beside a SMILES is read from it. I, II: the chains in the order shown. Actinocin(9to1) = Cc1c2oc3c(C)ccc(C(=O)[*:1])c3nc-2c(C(=O)[*:2])c(N)c1=O; NMeF = CN[CH](Cc1ccccc1)C(=O)O; Sar = CNCC(=O)O

Tested on: NCI-H322M
Experiment: NCI-60 cell line screen, 48 h

SMILES | GI50
Cc1c2oc3c(C)ccc(C(=O)NC4C(=O)NC(C(C)C)C(=O)N5CCCC5C(=O)N(C)CC(=O)N(C)C(Cc5ccccc5)C(=O)OC4C)c3nc-2c(C(=O)NC2C(=O)NC(C(C)C)C(=O)N3CCCC3C(=O)N(C)CC(=O)N(C)C(Cc3ccccc3)C(=O)OC2C)c(N)c1=O (stereo not drawn) (I: TVP[Sar][NMeF] / II: TVP[Sar][NMeF]; ester I:1-I:C, II:1-II:C; linker I:N-II:N via Actinocin(9to1); configuration not given here) | active: < 10 nM and active: 17.9 nM
CCOC(=O)NC(Nc1ncn(C(NC(=O)OCC)(C(F)(F)F)C(F)(F)F)n1)(C(F)(F)F)C(F)(F)F | inactive: > 100 µM
CCOc1ccc(NCC2CC/C(=C\c3ccccc3OC)C2=O)cc1 (stereo not drawn) | inactive: 15.8 µM
CCC1(N)C(=O)OCc2c1cc1n(c2=O)Cc2cc3ccccc3nc2-1 (stereo not drawn) | inactive: 27.1 µM
O=C1CNC(=O)N1 [HYDANTOIN] | inactive: > 1120 µM
NC(CCCC(N)P(=O)(O)O)P(=O)(O)O (stereo not drawn) | inactive: > 100 µM
NC1=C(Cl)C(=O)c2ccccc2C1=O | inactive: 7.83 µM
COc1cc(/C=C(\C#N)C(=O)c2ccccc2)ccc1O | inactive: > 100 µM
c1ccc(CN[C@]23C4C5CC6C7C5C2C7[C@@](NCc2ccccc2)(C64)N3Cc2ccccc2)cc1 (stereo partly drawn) | inactive: > 100 µM
CN(C)c1cccc(F)c1C(=O)NC(=O)Nc1ccc(Cl)cc1 | inactive: 8.69 µM
c1ccc2c(c1)[n-]n1c3ccc4nonc4c3n[n+]21 | inactive: > 100 µM
COc1cc(/C=C/C(=O)OC2C(O)C3CC(OC(=O)c4cc(OC)c(OC)c(OC)c4)CC2N3C)cc(OC)c1OC (stereo not drawn) | inactive: > 50 µM
CCOc1ncn(-c2ccc(NC(=S)NC3OC(CO)C(O)C(O)C3O)cc2)n1 (stereo not drawn) | inactive: > 100 µM
CN(C)CCCC12CCCCC1=Nc1ccccc12 (stereo not drawn) | inactive: > 100 µM
C=CCNC(=S)NNC(=O)c1c(C)nc2sccn12 | inactive: > 100 µM
O=C1CC(=O)NC(NN2C(=O)/C(=C/C(=O)c3ccco3)N=C2c2ccccc2)=N1 | inactive: > 100 µM
O=C1Oc2ccccc2C(=O)/C1=C\Nc1nc(-c2ccc(O)c(O)c2)cs1 | inactive: 13.3 µM

SMILES | GI50
Nc1ccn(C2CCC(CO)O2)c(=S)n1 (stereo not drawn) | inactive: > 100 µM
C=C1C(=O)O[C@@H]2C[C@@H](C)[C@@H]3C=CC(=O)[C@@]3(C)[C@@H](O)[C@H]12 [HELENALIN] | inactive: 2.33 µM
Cc1cc2nc(N3C(=O)/C(=C/c4cccc([N+](=O)[O-])c4)N=C3c3ccccc3)sc2cc1C | inactive: 48.4 µM
O=C(O)CN1C(=O)OC(c2ccccc2)C1=O (stereo not drawn) | inactive: > 100 µM
NCCC(=O)N[C@H](Cc1cc(O)c(O)c(SCC(NC(=O)CC[C@H](N)C(=O)O)C(=O)NCC(=O)O)c1)C(=O)O (stereo partly drawn) | inactive: > 50 µM
O=C(NC(=O)c1c(Cl)nc2sccn12)Nc1ccc(Cl)cc1 | inactive: > 100 µM
O=C(Nc1ccn(CCOC(=O)c2ccccc2)c(=O)n1)c1ccccc1 | inactive: > 100 µM
CCOC(=O)CSc1c(C(=O)OCC)c(=O)n(-c2ccccc2)c(=S)n1-c1ccccc1 | inactive: > 100 µM
CN1CCc2c(sc3nc(S)nc(S)c23)C1 | inactive: > 100 µM
C/C=C\C(CC(=O)NCCC1CN(S(=O)(=O)c2ccc(C)cc2)c2ccccc21)CC(=O)OC (stereo not drawn) | inactive: > 100 µM
Oc1c2cc(Br)cc1CCc1cc(Br)cc(c1O)CC2 | inactive: 19.2 µM
COC(=O)/C(C#N)=C(\Nc1ccccc1)N1CCCC1 | inactive: > 100 µM
CN1OC2OC(=O)OC2[C@H]1[C@H]1O[C@H](c2ccccc2)OC1(C)c1cc(OC(=O)c2ccccc2)ccc1OC(=O)c1ccccc1 (stereo partly drawn) | inactive: > 50 µM
O=c1c2cc(Br)cc(Br)c2[nH]c(=S)n1-c1ccc(/N=N/c2ccc(O)c3cccnc23)cc1 | inactive: > 100 µM
CC(=O)Nc1ccc(-c2nc3ccccc3s2)cc1C | inactive: 58.7 µM
Cc1cc(NCCCCCCCNc2cc(C)nc3cc(N)ccc23)c2ccc(N)cc2n1 | inactive: 65.2 µM
